Numbering of substitutions follows the chain as printed. No constants are given. Whether binding was seen depends on the method and setting. In cells and extracts the contact can be indirect. Some entries that bind do so weakly or less than the wild type. For part of these data: Where a sequence is shown, tags or fusion partners need not be part of it. Blank lines part the entries; values can stand above or below the substance they belong to.
Legend:
GST-TMEM9 (human) = GST-TMEM9 (human) (UniProt Q9P0T7); experiment: pull-down; GST-TMEM9 immobilised on Glutathione Sepharose 4B and incubated with 35S-labelled in vitro translated Beclin1; binding buffer 20 mM Tris-HCl pH 7.2, 0.15 M NaCl, 0.2% Triton X-100; SDS-PAGE and autoradiography; only the target purified
Beclin1-flag (human) [1] = target: Beclin1-flag (human) (UniProt Q14457); experiment: co-IP; HEK293T co-transfected with TMEM9-HA, Beclin1-flag and Bcl-2 as indicated; basal medium or EBSS for 6 h; IP with anti-FLAG antibody; blots with anti-flag, anti-HA and anti-Bcl2
[2] = target: T1, TMEM9 90-183 (TMEM9 ΔN), HA-tagged (human) (UniProt Q9P0T7); experiment: co-IP; HEK293T co-transfected for 48 h with HA-tagged TMEM9 (or deletion mutants) and Beclin1-flag (or deletion mutants); IP with anti-HA antibody; blots with anti-flag and anti-HA
T1 sequence: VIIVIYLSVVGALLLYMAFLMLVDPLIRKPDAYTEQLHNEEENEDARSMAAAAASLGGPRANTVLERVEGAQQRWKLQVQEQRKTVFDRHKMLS

Amino acid sequences for entries named in this document (tags omitted).
UniProt Q14457: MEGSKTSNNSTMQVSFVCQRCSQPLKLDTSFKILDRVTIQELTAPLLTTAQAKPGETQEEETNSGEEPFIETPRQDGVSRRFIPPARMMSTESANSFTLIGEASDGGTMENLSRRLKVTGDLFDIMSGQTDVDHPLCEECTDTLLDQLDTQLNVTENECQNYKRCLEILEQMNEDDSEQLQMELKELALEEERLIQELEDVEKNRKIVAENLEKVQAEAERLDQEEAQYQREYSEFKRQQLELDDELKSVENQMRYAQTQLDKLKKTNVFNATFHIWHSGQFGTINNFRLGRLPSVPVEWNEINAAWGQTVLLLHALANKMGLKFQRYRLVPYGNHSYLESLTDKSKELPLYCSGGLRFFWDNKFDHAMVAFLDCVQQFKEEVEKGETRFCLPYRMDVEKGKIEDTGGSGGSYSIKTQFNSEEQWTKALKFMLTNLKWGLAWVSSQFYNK
UniProt P10415: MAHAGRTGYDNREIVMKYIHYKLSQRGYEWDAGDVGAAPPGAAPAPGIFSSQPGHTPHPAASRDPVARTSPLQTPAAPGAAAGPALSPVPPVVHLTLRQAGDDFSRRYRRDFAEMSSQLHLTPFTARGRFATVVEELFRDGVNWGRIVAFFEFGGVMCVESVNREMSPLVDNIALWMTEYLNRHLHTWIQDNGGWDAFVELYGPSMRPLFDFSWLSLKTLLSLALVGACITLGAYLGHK

TMEM9-HA (human) = TMEM9-HA (human) (UniProt Q9P0T7); experiment: as above
[3] = target: T2, TMEM9 N38Q, flag-tagged (human) (UniProt Q9P0T7); experiment: co-IP; HEK293T co-transfected with Beclin1-HA and flag-tagged TMEM9 (WT or point mutants); IP with Flag-M2 / anti-flag beads; blots with anti-HA and anti-flag; basal medium or EBSS for 6 h
T2 sequence: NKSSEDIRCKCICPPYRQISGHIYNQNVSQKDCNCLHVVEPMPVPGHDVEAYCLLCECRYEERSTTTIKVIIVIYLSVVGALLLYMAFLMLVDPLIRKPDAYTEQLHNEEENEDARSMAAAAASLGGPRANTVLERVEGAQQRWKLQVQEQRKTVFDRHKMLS

[4] = target: T3, TMEM9 S144D, flag-tagged (human) (UniProt Q9P0T7); experiment: as above
T3 sequence: T2 sequence with Q18N, S124D

TMEM9-3NQ-flag (human) = target: T4, TMEM9-3NQ-flag (human) (UniProt Q9P0T7); experiment: as above
T4 sequence: T2 sequence with N1Q, N27Q

[5] = target: T5, TMEM9 S137A, flag-tagged (human) (UniProt Q9P0T7); experiment: as above
T5 sequence: T2 sequence with Q18N, S117A

[6] = target: T6, TMEM9 N47Q, flag-tagged (human) (UniProt Q9P0T7); experiment: as above
T6 sequence: T2 sequence with Q18N, N27Q

[7] = target: T7, TMEM9 S144A, flag-tagged (human) (UniProt Q9P0T7); experiment: as above
T7 sequence: T2 sequence with Q18N, S124A

TMEM9-WT-flag (human) = TMEM9-WT-flag (human) (UniProt Q9P0T7); experiment: as above
[8] = target: T8, TMEM9 2SA (S137A/S144A), flag-tagged (human) (UniProt Q9P0T7); experiment: as above
T8 sequence: T2 sequence with Q18N, S117A, S124A

[9] = target: T9, TMEM9 2SD (S137D/S144D), flag-tagged (human) (UniProt Q9P0T7); experiment: as above
T9 sequence: T2 sequence with Q18N, S117D, S124D

[10] = target: T10, TMEM9 S137D, flag-tagged (human) (UniProt Q9P0T7); experiment: as above
T10 sequence: T2 sequence with Q18N, S117D

[11] = target: T11, TMEM9 N21Q, flag-tagged (human) (UniProt Q9P0T7); experiment: as above
T11 sequence: T2 sequence with N1Q, Q18N

Beclin1-flag (human) [12] = target: Beclin1-flag (human) (UniProt Q14457); experiment: co-IP; HEK293T co-transfected with TMEM9-HA and Beclin1-flag; IP with Flag-M2 magnetic beads; blots with antibodies against TMEM9, Beclin1 and Rab9; lysis in modified RIPA buffer (1% CHAPS)
TMEM9-VC (human) = TMEM9-VC (human) (UniProt Q9P0T7); experiment: split reporter; BiFC with Venus fragments (VN, VC) in HeLa cells, 37 °C for 24 h, fixed with 4% PFA, confocal microscopy

Substance: 35S-Met-labeled Beclin1 (from UniProt Q14457 1-450)
binding (GST-TMEM9 (human)): binds

Substance: Beclin1-flag (from UniProt Q14457 1-450)
binding [2]: binds | binding (TMEM9-HA (human)): binds

Substance: TMEM9-HA (from UniProt Q9P0T7 21-183)
binding (Beclin1-flag (human) [1]): binds | binding (Beclin1-flag (human) [12]): binds

Further lines, results first:

binding (Beclin1-flag (human) [1]): binds
Substance: Bcl-2 (from UniProt P10415 1-239)

binding [3]: binds | binding [4]: binds | binding (TMEM9-3NQ-flag (human)): no binding | binding [5]: binds | binding [6]: binds | binding [7]: binds | binding (TMEM9-WT-flag (human)): binds | binding [8]: binds | binding [9]: binds | binding [10]: binds | binding [11]: binds
Substance: Beclin1-HA (from UniProt Q14457 1-450)

binding (TMEM9-VC (human)): binds
Substance: VN-Beclin1 (from UniProt Q14457 1-450)

— article PMC11335249
